# From the supplement of paper PMC8728848
# This is one part of the list.
# How the values were obtained:
# Assay in all cases: glycan array binding signal (z-score within array); higher = stronger binding
# Conditions in all cases: glycan notation: IUPAC condensed, linker removed
# [1] = biological target: Neu5Ac(a2-6)Gal(b1-4)GlcNAc(b1-3)Gal(b1-4)GlcNAc(b1-3)GalNAc
# Method in brief: (§1)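 The binding signal is a Z-score computed within each array. Data were drawn from 3228 arrays in the Consortium for Functional Glycomics database, restricted to those with a known protein sequence. Scores were averaged over arrays of the same protein sequence at different concentrations or buffers, and over linkers, and negative values can be taken as non-binding.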
# [2] = biological target: Neu5Ac(a2-6)Gal(b1-4)GlcNAc(b1-3)Gal(b1-4)GlcNAc(b1-3)[Neu5Ac(a2-6)Gal(b1-4)GlcNAc(b1-3)Gal(b1-4)GlcNAc(b1-6)]GalNAc
# Method in brief: as §1
# [3] = biological target: Neu5Ac(a2-6)Gal(b1-4)GlcNAc(b1-3)Gal(b1-4)GlcNAc(b1-6)[Gal(b1-3)]GalNAc
# Method in brief: as §1
# [4] = biological target: Neu5Ac(a2-6)Gal(b1-4)GlcNAc(b1-3)Gal(b1-4)[Fuc(a1-3)]GlcNAc(b1-3)Gal(b1-4)[Fuc(a1-3)]GlcNAc
# Method in brief: as §1
# [5] = biological target: Neu5Ac(a2-6)Gal(b1-4)GlcNAc(b1-3)GalNAc
# Method in brief: as §1
# [6] = biological target: Neu5Ac(a2-6)Gal(b1-4)GlcNAc(b1-3)[Neu5Ac(a2-6)Gal(b1-4)GlcNAc(b1-6)]GalNAc
# Method in brief: as §1
# [7] = biological target: Neu5Ac(a2-6)Gal(b1-4)GlcNAc(b1-6)GalNAc
# Method in brief: as §1
# [8] = biological target: Neu5Ac(a2-6)Gal(b1-4)GlcNAc(b1-6)[Gal(b1-3)GlcNAc(b1-3)]Gal(b1-4)Glc
# Method in brief: as §1
# [9] = biological target: Neu5Ac(a2-6)Gal(b1-4)GlcNAc(b1-6)[Gal(b1-3)]GalNAc
# Method in brief: as §1
# [10] = biological target: Neu5Ac(a2-6)Gal(b1-4)GlcNAc6S
# Method in brief: as §1
# Neu5Ac(a2-6)GalNAc = biological target: Neu5Ac(a2-6)GalNAc
# Method in brief: as §1
# [11] = biological target: Neu5Ac(a2-6)GalNAc(b1-4)GlcNAc
# Method in brief: as §1
# [12] = biological target: Neu5Ac(a2-6)GalNAc(b1-4)GlcNAc6S
# Method in brief: as §1
# [13] = biological target: Neu5Ac(a2-6)GlcNAc(b1-4)GlcNAc
# Method in brief: as §1
# [14] = biological target: Neu5Ac(a2-6)GlcNAc(b1-4)GlcNAc(b1-4)GlcNAc
# Method in brief: as §1
# Neu5Ac(a2-8)Neu5Ac = biological target: Neu5Ac(a2-8)Neu5Ac
# Method in brief: as §1
# [15] = biological target: Neu5Ac(a2-8)Neu5Ac(a2-3)Gal(b1-3)GalNAc(b1-4)[Neu5Ac(a2-3)]Gal(b1-4)Glc
# Method in brief: as §1
# [16] = biological target: Neu5Ac(a2-8)Neu5Ac(a2-3)Gal(b1-3)GalNAc(b1-4)[Neu5Ac(a2-8)Neu5Ac(a2-3)]Gal(b1-4)Glc
# Method in brief: as §1
# [17] = biological target: Neu5Ac(a2-8)Neu5Ac(a2-3)Gal(b1-4)Glc
# Method in brief: as §1
# [18] = biological target: Neu5Ac(a2-8)Neu5Ac(a2-3)Gal(b1-4)GlcNAc
# Method in brief: as §1
# [19] = biological target: Neu5Ac(a2-8)Neu5Ac(a2-3)[Gal(b1-3)GalNAc(b1-4)]Gal(b1-4)Glc
# Method in brief: as §1
# [20] = biological target: Neu5Ac(a2-8)Neu5Ac(a2-3)[GalNAc(b1-4)]Gal(b1-4)Glc
# Method in brief: as §1
# [21] = biological target: Neu5Ac(a2-8)Neu5Ac(a2-8)Neu5Ac
# Method in brief: as §1
# [22] = biological target: Neu5Ac(a2-8)Neu5Ac(a2-8)Neu5Ac(a2-3)Gal(b1-4)Glc
# Method in brief: as §1
# [23] = biological target: Neu5Ac(a2-8)Neu5Ac(a2-8)Neu5Ac(a2-3)[Gal(b1-3)GalNAc(b1-4)]Gal(b1-4)Glc
# Method in brief: as §1
# [24] = biological target: Neu5Ac(a2-8)Neu5Ac(a2-8)Neu5Ac(a2-3)[GalNAc(b1-4)]Gal(b1-4)Glc
# Method in brief: as §1
# [25] = biological target: Neu5Ac(a2-8)Neu5Ac(a2-8)Neu5Ac(a2-8)Neu5Ac(a2-3)[GalNAc(b1-4)]Gal(b1-4)Glc
# Method in brief: as §1
# [26] = biological target: Neu5Ac(a2-8)Neu5Gc(a2-3)Gal(b1-4)GlcNAc
# Method in brief: as §1
# [27] = biological target: Neu5Ac(b2-6)Gal(b1-4)GlcNAc
# Method in brief: as §1
# Neu5Ac(b2-6)GalNAc = biological target: Neu5Ac(b2-6)GalNAc
# Method in brief: as §1
# [28] = biological target: Neu5Ac9Ac(a2-3)Gal(b1-3)GlcNAc
# Method in brief: as §1
# [29] = biological target: Neu5Ac9Ac(a2-3)Gal(b1-4)GlcNAc
# Method in brief: as §1
# [30] = biological target: Neu5Ac9Ac(a2-6)Gal(b1-4)GlcNAc
# Method in brief: as §1
# [31] = biological target: Neu5Gc(a2-3)Gal(b1-3)GlcNAc
# Method in brief: as §1
# [32] = biological target: Neu5Gc(a2-3)Gal(b1-3)[Fuc(a1-4)]GlcNAc
# Method in brief: as §1
# Neu5Gc(a2-3)Gal(b1-4)Glc = biological target: Neu5Gc(a2-3)Gal(b1-4)Glc
# Method in brief: as §1
# [33] = biological target: Neu5Gc(a2-3)Gal(b1-4)GlcNAc
# Method in brief: as §1
# [34] = biological target: Neu5Gc(a2-3)Gal(b1-4)GlcNAc(b1-3)Gal(b1-4)GlcNAc(b1-2)Man(a1-3)[Neu5Gc(a2-3)Gal(b1-4)GlcNAc(b1-3)Gal(b1-4)GlcNAc(b1-2)Man(a1-6)]Man(b1-4)GlcNAc(b1-4)GlcNAc
# Method in brief: as §1
# [35] = biological target: Neu5Gc(a2-3)Gal(b1-4)[Fuc(a1-3)]GlcNAc
# Method in brief: as §1
# [36] = biological target: Neu5Gc(a2-6)Gal(b1-4)GlcNAc
# Method in brief: as §1
# Neu5Gc(a2-6)GalNAc = biological target: Neu5Gc(a2-6)GalNAc
# Method in brief: as §1
# [37] = biological target: Neu5Gc(a2-8)Neu5Ac(a2-3)Gal(b1-4)GlcNAc
# Method in brief: as §1
# [38] = biological target: Neu5Gc(a2-8)Neu5Gc(a2-3)Gal(b1-4)GlcNAc
# Method in brief: as §1
# [39] = biological target: Neu5Gc(a2-8)Neu5Gc(a2-3)Gal(b1-4)GlcNAc(b1-3)Gal(b1-4)GlcNAc
# Method in brief: as §1
# [40] = biological target: Neu5Gc(a2-8)Neu5Gc(a2-6)Gal(b1-4)GlcNAc
# Method in brief: as §1
# [41] = biological target: Neu5Gc(b2-6)Gal(b1-4)GlcNAc
# Method in brief: as §1
binder,measurement,setting,value
"Langerin K313I (Homo sapiens), Q9UJ71 (protein) STLNAQIPELKSDLEKASALNTKIRALQGSLENMSKLLKRQNDILQVVSQGWKYFKGNFYYFSLIPKTWYSAEQFCVSRNSHLTSVTSESEQEFLYKTAGGLIYWIGLTKAGMEGDWSWVDDTPFNKVQSARFWIPGEPNNAGNNEHCGNIKAPSLQAWNDAPCDITFLFICKRPYVPSEP",glycan array binding signal (z-score),[1],-0.349
same,glycan array binding signal (z-score),[2],-0.017
same,glycan array binding signal (z-score),[3],-0.203
same,glycan array binding signal (z-score),[4],-0.005
same,glycan array binding signal (z-score),[5],0.2
same,glycan array binding signal (z-score),[6],-0.115
same,glycan array binding signal (z-score),[7],0.252
same,glycan array binding signal (z-score),[8],-0.375
same,glycan array binding signal (z-score),[9],-0.197
same,glycan array binding signal (z-score),[10],-0.359
same,glycan array binding signal (z-score),Neu5Ac(a2-6)GalNAc,-0.385
same,glycan array binding signal (z-score),[11],-0.343
same,glycan array binding signal (z-score),[12],-0.249
same,glycan array binding signal (z-score),[13],-0.387
same,glycan array binding signal (z-score),[14],-0.381
same,glycan array binding signal (z-score),Neu5Ac(a2-8)Neu5Ac,-0.309
same,glycan array binding signal (z-score),[15],-0.267
same,glycan array binding signal (z-score),[16],-0.31
same,glycan array binding signal (z-score),[17],-0.362
same,glycan array binding signal (z-score),[18],-0.371
same,glycan array binding signal (z-score),[19],-0.175
same,glycan array binding signal (z-score),[20],-0.171
same,glycan array binding signal (z-score),[21],-0.331
same,glycan array binding signal (z-score),[22],-0.299
same,glycan array binding signal (z-score),[23],-0.317
same,glycan array binding signal (z-score),[24],-0.311
same,glycan array binding signal (z-score),[25],-0.315
same,glycan array binding signal (z-score),[26],-0.376
same,glycan array binding signal (z-score),[27],-0.285
same,glycan array binding signal (z-score),Neu5Ac(b2-6)GalNAc,-0.369
same,glycan array binding signal (z-score),[28],-0.383
same,glycan array binding signal (z-score),[29],-0.377
same,glycan array binding signal (z-score),[30],-0.397
same,glycan array binding signal (z-score),[31],-0.369
same,glycan array binding signal (z-score),[32],-0.287
same,glycan array binding signal (z-score),Neu5Gc(a2-3)Gal(b1-4)Glc,-0.085
same,glycan array binding signal (z-score),[33],-0.335
same,glycan array binding signal (z-score),[34],0.158
same,glycan array binding signal (z-score),[35],-0.121
same,glycan array binding signal (z-score),[36],-0.234
same,glycan array binding signal (z-score),Neu5Gc(a2-6)GalNAc,-0.351
same,glycan array binding signal (z-score),[37],-0.318
same,glycan array binding signal (z-score),[38],-0.296
same,glycan array binding signal (z-score),[39],-0.356
same,glycan array binding signal (z-score),[40],-0.372
same,glycan array binding signal (z-score),[41],-0.35
